Measurements: paper PMC5062570 (Nature Communications, 2016)
Where “and” joins values, the source holds several entries; their conditions need not be identical. Identical values can stand only once. Like-named read-outs stand apart in the source and are kept apart here.

Columns and labels:
[1] = target: PF-7802-labelled proteins in ARPE-19 cells (Homo sapiens, UniProt O95782); conditions: protein AP2A1 AP-2 complex subunit alpha-1 (O95782)
[2] = target: PF-7802-labelled proteins in ARPE-19 cells (Homo sapiens, UniProt P00403); conditions: protein MT-CO2 Cytochrome c oxidase subunit 2 (P00403); replicates in separate columns
[3] = target: PF-7802-labelled proteins in ARPE-19 cells (Homo sapiens, UniProt P12956); conditions: for Median SILAC Ratio (Heavy/Light): protein XRCC6 X-ray repair cross-complementing protein 6 (P12956)
[4] = target: PF-7802-labelled proteins in ARPE-19 cells (Homo sapiens, UniProt P14314); conditions: protein PRKCSH Glucosidase 2 subunit beta, P14314
[5] = target: PF-7802-labelled proteins in ARPE-19 cells (Homo sapiens, UniProt P26599); conditions: for Median SILAC Ratio (Heavy/Light): protein PTBP1 Polypyrimidine tract-binding protein 1, P26599
[6] = target: PF-7802-labelled proteins in ARPE-19 cells (Homo sapiens, UniProt P28331); conditions: protein NDUFS1 NADH-ubiquinone oxidoreductase 75 kDa subunit, mitochondrial (P28331); replicates in separate columns
[7] = target: PF-7802-labelled proteins in ARPE-19 cells (Homo sapiens, UniProt P30559); conditions: replicates in separate columns
[8] = target: PF-7802-labelled proteins in ARPE-19 cells (Homo sapiens, UniProt P35268); conditions: protein RPL22 60S ribosomal protein L22, P35268
[9] = target: PF-7802-labelled proteins in ARPE-19 cells (Homo sapiens, UniProt P37059); conditions: protein HSD17B2 Estradiol 17-beta-dehydrogenase 2 (P37059); one column per replicate
[10] = target: PF-7802-labelled proteins in ARPE-19 cells (Homo sapiens, UniProt P48643); conditions: protein CCT5 T-complex protein 1 subunit epsilon (P48643)
[11] = target: PF-7802-labelled proteins in ARPE-19 cells (Homo sapiens, UniProt P53634); conditions: protein CTSC Dipeptidyl peptidase 1 (P53634)
[12] = target: PF-7802-labelled proteins in ARPE-19 cells (Homo sapiens, UniProt P78527); conditions: for Median SILAC Ratio (Heavy/Light): protein PRKDC DNA-dependent protein kinase catalytic subunit, P78527
[13] = target: PF-7802-labelled proteins in ARPE-19 cells (Homo sapiens, UniProt Q13243); conditions: SRSF5 Serine/arginine-rich splicing factor 5 (Q13243)
[14] = target: PF-7802-labelled proteins in ARPE-19 cells (Homo sapiens, UniProt Q13740); conditions: protein ALCAM CD166 antigen (Q13740)
[15] = target: PF-7802-labelled proteins in ARPE-19 cells (Homo sapiens, UniProt Q13813); conditions: SPTAN1 Spectrin alpha chain, non-erythrocytic 1 (Q13813)
[16] = target: PF-7802-labelled proteins in ARPE-19 cells (Homo sapiens, UniProt Q15147); conditions: protein PLCB4 1-phosphatidylinositol 4,5-bisphosphate phosphodiesterase beta-4 (Q15147); replicates in separate columns
[17] = target: PF-7802-labelled proteins in ARPE-19 cells (Homo sapiens, UniProt Q6WCQ1); conditions: protein MPRIP Myosin phosphatase Rho-interacting protein (Q6WCQ1); replicates in separate columns
[18] = target: PF-7802-labelled proteins in ARPE-19 cells (Homo sapiens, UniProt Q7Z406); conditions: protein MYH14 Myosin-14 (Q7Z406); replicates in separate columns
[19] = target: T1, PF-7802-labelled proteins in ARPE-19 cells (Homo sapiens, UniProt Q99798); conditions: for Median SILAC Ratio (Heavy/Light): protein ACO2 Aconitate hydratase, mitochondrial (Q99798)
T1 sequence (Q99798 28-780): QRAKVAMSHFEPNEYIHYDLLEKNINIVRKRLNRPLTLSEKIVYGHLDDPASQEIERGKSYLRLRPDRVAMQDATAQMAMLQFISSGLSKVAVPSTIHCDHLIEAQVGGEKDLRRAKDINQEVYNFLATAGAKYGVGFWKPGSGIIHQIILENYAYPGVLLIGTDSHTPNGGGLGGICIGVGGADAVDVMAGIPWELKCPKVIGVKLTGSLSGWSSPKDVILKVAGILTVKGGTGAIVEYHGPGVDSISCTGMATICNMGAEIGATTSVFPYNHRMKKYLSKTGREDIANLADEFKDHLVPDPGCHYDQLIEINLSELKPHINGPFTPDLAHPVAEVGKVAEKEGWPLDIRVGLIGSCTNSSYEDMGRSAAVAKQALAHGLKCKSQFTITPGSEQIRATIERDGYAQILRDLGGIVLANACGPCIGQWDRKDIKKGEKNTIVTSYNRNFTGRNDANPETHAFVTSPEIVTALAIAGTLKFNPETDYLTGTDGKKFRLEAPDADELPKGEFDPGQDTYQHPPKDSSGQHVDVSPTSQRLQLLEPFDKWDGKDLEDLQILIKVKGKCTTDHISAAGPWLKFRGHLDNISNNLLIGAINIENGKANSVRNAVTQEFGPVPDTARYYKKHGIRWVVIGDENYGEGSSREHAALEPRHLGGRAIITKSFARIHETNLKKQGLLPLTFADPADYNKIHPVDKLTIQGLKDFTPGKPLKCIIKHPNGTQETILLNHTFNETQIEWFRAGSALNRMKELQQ

[20] = target: PF-7802-labelled proteins in ARPE-19 cells (Homo sapiens, UniProt Q9NZM1); conditions: for Median SILAC Ratio (Heavy/Light): protein MYOF Myoferlin (Q9NZM1), replicates in separate columns
Sequence of UniProt Q9NZM1 (Q9NZM1 whole entry): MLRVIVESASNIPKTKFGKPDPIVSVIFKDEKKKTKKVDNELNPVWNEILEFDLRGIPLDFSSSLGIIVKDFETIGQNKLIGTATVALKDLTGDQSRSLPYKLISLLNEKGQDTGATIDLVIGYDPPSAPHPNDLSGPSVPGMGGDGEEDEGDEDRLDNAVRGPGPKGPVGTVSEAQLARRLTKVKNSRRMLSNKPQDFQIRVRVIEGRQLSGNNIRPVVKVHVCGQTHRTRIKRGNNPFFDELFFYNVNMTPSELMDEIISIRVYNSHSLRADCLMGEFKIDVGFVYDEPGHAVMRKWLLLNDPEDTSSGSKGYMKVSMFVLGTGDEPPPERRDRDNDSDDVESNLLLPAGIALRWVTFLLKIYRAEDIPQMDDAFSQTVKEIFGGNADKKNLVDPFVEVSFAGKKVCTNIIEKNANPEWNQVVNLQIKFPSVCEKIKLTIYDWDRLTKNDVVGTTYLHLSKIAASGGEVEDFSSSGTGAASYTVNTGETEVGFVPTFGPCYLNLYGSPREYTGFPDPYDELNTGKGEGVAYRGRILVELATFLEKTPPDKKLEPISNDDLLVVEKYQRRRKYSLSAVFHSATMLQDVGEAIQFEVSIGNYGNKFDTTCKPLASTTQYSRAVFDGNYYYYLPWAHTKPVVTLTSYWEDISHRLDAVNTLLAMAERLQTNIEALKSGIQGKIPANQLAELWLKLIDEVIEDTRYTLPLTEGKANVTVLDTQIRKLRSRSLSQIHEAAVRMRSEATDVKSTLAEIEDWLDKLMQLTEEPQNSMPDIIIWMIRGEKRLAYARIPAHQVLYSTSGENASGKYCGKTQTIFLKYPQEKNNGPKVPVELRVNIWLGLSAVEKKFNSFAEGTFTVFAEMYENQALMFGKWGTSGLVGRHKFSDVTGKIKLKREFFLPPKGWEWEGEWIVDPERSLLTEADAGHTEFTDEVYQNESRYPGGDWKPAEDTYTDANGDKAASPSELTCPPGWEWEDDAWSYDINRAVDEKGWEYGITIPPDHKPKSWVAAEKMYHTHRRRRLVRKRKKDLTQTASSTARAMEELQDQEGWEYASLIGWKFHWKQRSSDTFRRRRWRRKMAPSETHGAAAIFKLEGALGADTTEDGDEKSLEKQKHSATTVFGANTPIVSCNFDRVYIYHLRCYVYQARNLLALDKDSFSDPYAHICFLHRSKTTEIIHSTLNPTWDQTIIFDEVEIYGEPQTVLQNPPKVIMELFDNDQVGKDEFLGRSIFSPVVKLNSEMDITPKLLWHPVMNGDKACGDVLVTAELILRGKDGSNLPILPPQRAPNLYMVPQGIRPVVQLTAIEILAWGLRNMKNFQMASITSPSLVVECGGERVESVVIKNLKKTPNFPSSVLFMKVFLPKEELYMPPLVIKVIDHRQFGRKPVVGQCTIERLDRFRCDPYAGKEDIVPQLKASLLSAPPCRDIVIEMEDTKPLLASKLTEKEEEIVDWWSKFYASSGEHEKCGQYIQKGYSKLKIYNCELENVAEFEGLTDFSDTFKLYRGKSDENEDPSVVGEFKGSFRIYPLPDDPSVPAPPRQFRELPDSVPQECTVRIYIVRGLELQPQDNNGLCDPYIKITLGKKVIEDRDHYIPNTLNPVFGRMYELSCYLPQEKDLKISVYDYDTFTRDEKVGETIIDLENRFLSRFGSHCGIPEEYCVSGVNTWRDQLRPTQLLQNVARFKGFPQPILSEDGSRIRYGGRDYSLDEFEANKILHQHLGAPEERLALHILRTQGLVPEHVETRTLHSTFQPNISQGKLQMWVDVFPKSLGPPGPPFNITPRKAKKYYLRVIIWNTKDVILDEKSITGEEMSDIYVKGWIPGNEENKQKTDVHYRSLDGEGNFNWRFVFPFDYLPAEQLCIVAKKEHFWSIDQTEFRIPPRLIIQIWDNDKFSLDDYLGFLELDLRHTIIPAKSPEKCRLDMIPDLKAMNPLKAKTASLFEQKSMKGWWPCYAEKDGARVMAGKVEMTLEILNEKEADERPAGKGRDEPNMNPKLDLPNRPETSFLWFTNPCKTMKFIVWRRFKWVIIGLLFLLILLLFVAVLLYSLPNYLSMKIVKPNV

Sequence of UniProt P12956 (P12956 whole entry): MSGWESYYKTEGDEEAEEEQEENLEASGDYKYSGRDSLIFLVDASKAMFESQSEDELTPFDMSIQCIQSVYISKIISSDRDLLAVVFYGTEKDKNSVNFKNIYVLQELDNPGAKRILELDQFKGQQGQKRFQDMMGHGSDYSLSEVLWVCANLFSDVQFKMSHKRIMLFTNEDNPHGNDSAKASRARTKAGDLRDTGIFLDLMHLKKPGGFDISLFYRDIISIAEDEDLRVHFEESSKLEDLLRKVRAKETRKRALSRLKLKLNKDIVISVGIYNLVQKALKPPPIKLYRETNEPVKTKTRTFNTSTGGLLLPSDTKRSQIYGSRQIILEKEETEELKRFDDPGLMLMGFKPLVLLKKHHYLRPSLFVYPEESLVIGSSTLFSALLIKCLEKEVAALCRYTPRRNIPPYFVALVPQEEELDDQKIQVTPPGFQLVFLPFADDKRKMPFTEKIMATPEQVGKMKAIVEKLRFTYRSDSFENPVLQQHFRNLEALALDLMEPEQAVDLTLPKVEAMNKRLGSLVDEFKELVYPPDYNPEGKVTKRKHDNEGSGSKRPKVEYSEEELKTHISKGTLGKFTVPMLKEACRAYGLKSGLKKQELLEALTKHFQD
Sequence of UniProt P26599 (P26599 whole entry): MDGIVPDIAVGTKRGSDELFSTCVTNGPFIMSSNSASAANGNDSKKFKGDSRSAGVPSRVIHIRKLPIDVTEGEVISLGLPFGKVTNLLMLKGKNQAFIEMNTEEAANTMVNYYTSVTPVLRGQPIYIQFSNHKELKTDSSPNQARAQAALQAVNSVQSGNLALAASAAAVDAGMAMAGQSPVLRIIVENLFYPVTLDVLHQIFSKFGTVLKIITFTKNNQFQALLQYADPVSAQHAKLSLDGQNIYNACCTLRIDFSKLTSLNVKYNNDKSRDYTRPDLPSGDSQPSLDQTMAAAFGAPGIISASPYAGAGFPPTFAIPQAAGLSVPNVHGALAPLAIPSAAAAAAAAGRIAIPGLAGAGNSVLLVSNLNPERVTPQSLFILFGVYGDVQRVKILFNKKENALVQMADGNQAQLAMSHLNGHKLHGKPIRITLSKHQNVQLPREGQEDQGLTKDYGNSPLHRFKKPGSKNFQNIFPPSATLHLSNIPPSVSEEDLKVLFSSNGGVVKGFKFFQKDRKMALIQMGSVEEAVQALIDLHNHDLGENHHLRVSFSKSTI
Sequence of UniProt O95782 (O95782 whole entry): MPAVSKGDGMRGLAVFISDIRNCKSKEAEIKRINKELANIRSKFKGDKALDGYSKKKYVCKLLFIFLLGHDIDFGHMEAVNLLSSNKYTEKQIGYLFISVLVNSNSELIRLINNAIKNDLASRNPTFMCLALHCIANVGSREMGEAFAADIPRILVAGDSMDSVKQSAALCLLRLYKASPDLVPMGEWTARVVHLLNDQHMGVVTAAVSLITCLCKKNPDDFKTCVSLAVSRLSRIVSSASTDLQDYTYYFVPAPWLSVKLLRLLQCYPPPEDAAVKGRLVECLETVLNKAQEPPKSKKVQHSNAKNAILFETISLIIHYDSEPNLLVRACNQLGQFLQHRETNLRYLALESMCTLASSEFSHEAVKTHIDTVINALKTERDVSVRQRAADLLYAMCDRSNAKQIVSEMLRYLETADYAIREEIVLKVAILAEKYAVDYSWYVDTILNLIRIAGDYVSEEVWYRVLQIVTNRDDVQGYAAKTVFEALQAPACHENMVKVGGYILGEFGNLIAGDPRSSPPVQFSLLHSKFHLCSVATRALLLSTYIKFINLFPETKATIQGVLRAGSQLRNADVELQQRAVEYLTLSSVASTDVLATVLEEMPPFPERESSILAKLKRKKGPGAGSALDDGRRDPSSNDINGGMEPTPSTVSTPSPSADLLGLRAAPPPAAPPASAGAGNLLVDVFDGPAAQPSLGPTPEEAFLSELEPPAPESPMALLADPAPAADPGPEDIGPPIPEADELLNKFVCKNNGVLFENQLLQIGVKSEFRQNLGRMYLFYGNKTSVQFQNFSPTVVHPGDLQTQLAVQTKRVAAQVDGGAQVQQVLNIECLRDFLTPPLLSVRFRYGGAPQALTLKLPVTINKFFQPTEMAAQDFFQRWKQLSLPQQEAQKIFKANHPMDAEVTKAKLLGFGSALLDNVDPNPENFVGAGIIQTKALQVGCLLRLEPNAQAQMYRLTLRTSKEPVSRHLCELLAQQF
Sequence of UniProt P48643 (P48643 whole entry): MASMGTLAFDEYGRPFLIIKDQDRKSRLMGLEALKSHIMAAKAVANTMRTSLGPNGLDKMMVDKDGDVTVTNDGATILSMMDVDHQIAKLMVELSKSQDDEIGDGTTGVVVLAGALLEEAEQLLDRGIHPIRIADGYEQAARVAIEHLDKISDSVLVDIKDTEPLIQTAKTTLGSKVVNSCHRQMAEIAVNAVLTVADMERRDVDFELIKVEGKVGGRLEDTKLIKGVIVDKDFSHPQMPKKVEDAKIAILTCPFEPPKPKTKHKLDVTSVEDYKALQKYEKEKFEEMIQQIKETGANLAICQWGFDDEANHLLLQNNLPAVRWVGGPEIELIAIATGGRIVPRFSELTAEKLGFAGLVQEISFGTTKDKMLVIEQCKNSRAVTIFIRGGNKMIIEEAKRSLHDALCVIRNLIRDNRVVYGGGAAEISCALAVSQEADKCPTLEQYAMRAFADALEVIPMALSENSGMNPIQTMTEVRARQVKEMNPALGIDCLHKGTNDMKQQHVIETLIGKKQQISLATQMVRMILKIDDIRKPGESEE
Sequence of UniProt Q13243 (Q13243 whole entry): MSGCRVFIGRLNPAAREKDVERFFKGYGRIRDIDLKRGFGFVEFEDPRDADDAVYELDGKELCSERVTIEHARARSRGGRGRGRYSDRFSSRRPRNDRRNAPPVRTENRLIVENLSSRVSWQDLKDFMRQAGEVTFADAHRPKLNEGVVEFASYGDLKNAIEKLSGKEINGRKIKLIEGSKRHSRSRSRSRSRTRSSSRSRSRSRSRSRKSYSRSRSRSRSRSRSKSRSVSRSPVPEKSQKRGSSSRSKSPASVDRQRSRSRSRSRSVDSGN

CNC1CCN(C(=O)C[C@@H](Cc2ccccc2)C(=O)N[C@@H](CSC)C(=O)N[C@@H](CC2CCCCC2)[C@@H](O)C(=O)OC(C)C)CC1 [CP-108671, reference compound] was tested, and the “Median SILAC Ratio (Heavy/Light)” value [1] was 1.064, the “Median SILAC Ratio (Heavy/Light)” value [2] was 1.2459 and the “SILAC ratio (DMSO/CP-108671)” value ([3]; P12956 XRCC6 X-ray repair cross-complementing protein 6) was 0.90. For the same compound, the “Median SILAC Ratio (Heavy/Light)” value ([3]; replicate R1) was 1.117, the “Median SILAC Ratio (Heavy/Light)” value [4] was 1.007 and the “SILAC ratio (DMSO/CP-108671)” value ([5]; P26599 PTBP1 Polypyrimidine tract-binding protein 1) was 1.04. The “Median SILAC Ratio (Heavy/Light)” value [5] was 0.9647, the “Median SILAC Ratio (Heavy/Light)” value [6] was 0.9207 and the “Median SILAC Ratio (Heavy/Light)” value ([7]; protein OXTR Oxytocin receptor (P30559)) was 1.084. For the same compound, the “Median SILAC Ratio (Heavy/Light)” value [8] was 1.377, the “Median SILAC Ratio (Heavy/Light)” value [9] was 1.159 and the “Median SILAC Ratio (Heavy/Light)” value [10] was 0.98. For the same compound, the “Median SILAC Ratio (Heavy/Light)” value [11] was 0.5958, the “SILAC ratio (DMSO/CP-108671)” value ([12]; P78527 PRKDC DNA-dependent protein kinase catalytic subunit) was 1.14 and the “Median SILAC Ratio (Heavy/Light)” value [12] was 0.876. The “Median SILAC Ratio (Heavy/Light)” value [13] was 0.63, the “Median SILAC Ratio (Heavy/Light)” value [14] was 1.234 and the “Median SILAC Ratio (Heavy/Light)” value [15] was 1.201. For the same compound, the “Median SILAC Ratio (Heavy/Light)” value [16] was 1.2488, the “Median SILAC Ratio (Heavy/Light)” value [17] was 1.15 and the “Median SILAC Ratio (Heavy/Light)” value [18] was 2.162. The “SILAC ratio (DMSO/CP-108671)” value ([19]; Q99798 ACO2 Aconitate hydratase, mitochondrial) was 0.87, the “Median SILAC Ratio (Heavy/Light)” value [19] was 1.146 and the “SILAC ratio (DMSO/CP-108671)” value ([20]; Q9NZM1 MYOF Myoferlin) was 0.92. For the same compound, the “Median SILAC Ratio (Heavy/Light)” value [20] was 1.091.
Cc1cc([C@H]2C[C@H]3[C@@H](C)SC(N)=N[C@@]3(c3ccc(F)cc3F)CO2)on1 [PF-9283] was tested, and the “Median SILAC Ratio (Heavy/Light)” value [1] was 1.468, the “Median SILAC Ratio (Heavy/Light)” value [2] was 1.293 and the “Median SILAC Ratio (Heavy/Light)” value ([3]; replicate R1) was 1.844. For the same compound, the “Median SILAC Ratio (Heavy/Light)” value ([3]; replicate R2) was 0.8081, the “Median SILAC Ratio (Heavy/Light)” value [4] was 1.309 and the “Median SILAC Ratio (Heavy/Light)” value [5] was 1.288 and 0.7894. The “Median SILAC Ratio (Heavy/Light)” value [6] was 0.9905, the “Median SILAC Ratio (Heavy/Light)” value ([7]; […]) was 1.536 and the “Median SILAC Ratio (Heavy/Light)” value [8] was 1.087 and 0.9147. The “Median SILAC Ratio (Heavy/Light)” value [9] was 1.391, the “Median SILAC Ratio (Heavy/Light)” value [10] was 0.9006 and the “Median SILAC Ratio (Heavy/Light)” value [11] was 1.158. The “Median SILAC Ratio (Heavy/Light)” value [12] was 1.2187, the “Median SILAC Ratio (Heavy/Light)” value [13] was 0.633 and the “Median SILAC Ratio (Heavy/Light)” value [14] was 1.453. For the same compound, the “Median SILAC Ratio (Heavy/Light)” value [15] was 1.332, the “Median SILAC Ratio (Heavy/Light)” value [16] was 1.422 and the “Median SILAC Ratio (Heavy/Light)” value [17] was 1.246. For the same compound, the “Median SILAC Ratio (Heavy/Light)” value [18] was 1.841, the “Median SILAC Ratio (Heavy/Light)” value [19] was 1.292 and the “Median SILAC Ratio (Heavy/Light)” value [20] was 1.388.
